Test results from article PMC4336329 (PLoS ONE, 2015).
Among all 310,000 compounds or so, about 14,000 (4.5%) showed an effect of 50% or more. Effects have a minus sign here. The list shows a part of the results.

biological target: human ether-à-go-go-related gene (hERG) potassium channel (human, UniProt Q12809); experiment: primary screen, population patch clamp on CHO cells stably expressing hERG
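Further: peak tail current of the secondary pulse compared with the same well before compound.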

Chain of human ether-à-go-go-related gene (hERG) potassium channel (Q12809 whole entry, looked up): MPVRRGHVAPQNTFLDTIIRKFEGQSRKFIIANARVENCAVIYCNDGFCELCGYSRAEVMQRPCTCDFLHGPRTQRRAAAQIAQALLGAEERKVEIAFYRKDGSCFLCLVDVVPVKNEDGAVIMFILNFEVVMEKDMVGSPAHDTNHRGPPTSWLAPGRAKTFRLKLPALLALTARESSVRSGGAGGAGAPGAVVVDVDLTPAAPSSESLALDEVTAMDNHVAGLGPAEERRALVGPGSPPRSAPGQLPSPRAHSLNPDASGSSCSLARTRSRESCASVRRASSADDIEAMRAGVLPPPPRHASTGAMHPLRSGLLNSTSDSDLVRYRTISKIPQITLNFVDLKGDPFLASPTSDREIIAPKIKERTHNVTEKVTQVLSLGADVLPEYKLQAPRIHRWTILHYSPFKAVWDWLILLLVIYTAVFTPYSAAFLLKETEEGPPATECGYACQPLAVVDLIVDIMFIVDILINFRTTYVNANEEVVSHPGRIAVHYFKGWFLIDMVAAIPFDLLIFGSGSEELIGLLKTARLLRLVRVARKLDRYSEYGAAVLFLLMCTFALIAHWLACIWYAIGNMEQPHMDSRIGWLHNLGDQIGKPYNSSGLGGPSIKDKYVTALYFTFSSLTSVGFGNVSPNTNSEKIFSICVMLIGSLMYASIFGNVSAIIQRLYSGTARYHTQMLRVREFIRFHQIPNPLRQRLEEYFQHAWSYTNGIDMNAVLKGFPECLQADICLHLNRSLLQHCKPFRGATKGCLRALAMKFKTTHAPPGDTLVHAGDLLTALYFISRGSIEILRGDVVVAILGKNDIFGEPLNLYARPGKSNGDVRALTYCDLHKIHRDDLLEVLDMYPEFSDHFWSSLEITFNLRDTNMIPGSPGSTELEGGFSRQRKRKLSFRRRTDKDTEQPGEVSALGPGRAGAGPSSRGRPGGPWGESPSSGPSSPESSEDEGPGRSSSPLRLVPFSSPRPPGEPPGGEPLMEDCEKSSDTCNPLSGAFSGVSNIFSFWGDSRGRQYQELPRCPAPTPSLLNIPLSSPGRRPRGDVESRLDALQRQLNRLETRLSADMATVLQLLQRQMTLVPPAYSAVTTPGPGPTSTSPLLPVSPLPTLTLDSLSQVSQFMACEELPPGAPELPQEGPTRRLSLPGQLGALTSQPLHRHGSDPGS

Compared with `CCCCOc1ccc(CCC(=O)N/N=C/c2ccco2)cc1`, `Cc1cccc(NC(=O)Cc2ccc(F)cc2)c1` is higher in “hERG current change (%, negative = inhibition) at 10uM” value: -22.8% for the first, -6.63% for the second.

Compared with `COCCNCCOCCOc1cccc(OC)c1`, `CCC(=O)Nc1cccc(C(=O)OC)c1` is higher in “hERG current change (%, negative = inhibition) at 10uM” value: -0.3% for the first, 10.6% for the second.

First: CCOc1ccc(NC(=O)c2ccc(NC(=O)Cc3n[nH]c(=O)c4ccccc34)cc2)cc1
Second: CCC(=O)Nc1ccccc1C(=O)OCC(=O)c1ccc2ccccc2c1
The “hERG current change (%, negative = inhibition) at 10uM” value of the first is higher: 4.35% for the first, 1.16% for the second.

Going from `COc1ccc(C(=O)c2c[nH]c(C(=O)NCCCn3ccnc3)c2)cc1` to `COc1ccc(C(=O)NCc2oc(-c3ccccc3)cc2C(=O)O)cc1`, the “hERG current change (%, negative = inhibition) at 10uM” value rises from 0.775% to 13.2%.

Compared with `O=C(COC(=O)c1ccco1)NCCNC(=O)COC(=O)c1ccco1`, `O=C(COC(=O)Cc1ccccc1F)Nc1ccc(Cl)cn1` is lower in “hERG current change (%, negative = inhibition) at 10uM” value: 21.8% for the first, -20.7% for the second.

First: CN(Cc1cccc(F)c1)C(=O)C(c1ccccc1)c1ccccc1
Second: CN(C(=S)Nc1ccc(F)cc1)C(c1ccccc1)c1ccccc1
The “hERG current change (%, negative = inhibition) at 10uM” value of the first is higher: 16.7% for the first, 11.1% for the second.

First: Cc1cc(C)nc(SCC(=O)c2ccc(F)cc2F)n1
Second: Cc1cc(C(=O)CCl)c(C)n1CCc1ccc(F)cc1
The “hERG current change (%, negative = inhibition) at 10uM” value of the first is lower: -1.55% for the first, 27.2% for the second.

First: Cc1ccc(S(=O)(=O)N2CCOCC2)cc1NC(=O)COC(=O)c1cc[n+]([O-])cc1
Second: Cc1ccc(S(=O)(=O)c2ccccc2)cc1S(=O)(=O)N1CCOCC1
The “hERG current change (%, negative = inhibition) at 10uM” value of the first is higher: 15.5% for the first, -2.45% for the second.

Going from `O=C(NCc1ccco1)C1CC(c2ccccc2O)=NO1` (stereo not drawn) to `O=C(Nc1nnc(-c2ccccc2)s1)c1ccccc1O`, the “hERG current change (%, negative = inhibition) at 10uM” value falls from 17.2% to 14.8%.

First: O=C(NNc1ccc(C2CCCCC2)cc1)C(O)(c1ccccc1)c1cccs1 (stereo not drawn)
Second: CC(=O)Nc1ccc(N(C(=O)c2cnccn2)C(C(=O)NC2CCCCC2)c2ccc(O)cc2)cc1 (stereo not drawn)
The “hERG current change (%, negative = inhibition) at 10uM” value of the first is lower: -10.4% for the first, 2.71% for the second.

First: O=C(COc1ccccc1Br)NC1CCCC1
Second: Clc1ccccc1OCCN1CCCCC1
The “hERG current change (%, negative = inhibition) at 10uM” value of the first is higher: -9.97% for the first, -16.2% for the second.

First: COC(=O)C1=C(C)OC(N)=C(C#N)C1c1cc(OC)ccc1OC (stereo not drawn)
Second: CCOC(=O)C1=C(C)NC(SCC(N)=O)=C(C#N)C1c1ccncc1 (stereo not drawn)
The “hERG current change (%, negative = inhibition) at 10uM” value of the first is lower: -10.9% for the first, -2.1% for the second.

Going from `Cc1ccc(-c2csc(N3CCN(CCCn4c(C(F)(F)F)nc5ccccc54)CC3)n2)cc1` to `Cc1ccccc1NC(=S)N1CCN(Cc2ccccc2)CC1`, the “hERG current change (%, negative = inhibition) at 10uM” value rises from -4.95% to 13.9%.

Compared with `COc1cc(N=C2C(=O)N3CCCc4cccc2c43)cc(OC)c1`, `CCOc1ccc2[nH]c(=O)c(CN(CCN3CCCC3)C(=S)Nc3ccccc3OCC)cc2c1` is lower in “hERG current change (%, negative = inhibition) at 10uM” value: 1.84% for the first, -70.2% for the second.

Compared with `O=C(Cc1cc(=O)[nH]c(=O)[nH]1)N1CCN(C(=O)c2ccco2)CC1`, `CCn1ncc(CN2CCN(C(=O)Nc3ccccc3C(=O)OC)CC2)c1C` is lower in “hERG current change (%, negative = inhibition) at 10uM” value: 14.1% for the first, -7.28% for the second.

Going from `O=C(Nc1cccc(S(=O)(=O)N2CCOCC2)c1)C1CC(=O)N(c2ccc3c(c2)OCCO3)C1` (stereo not drawn) to `O=C(Nc1ccc(N2CCN(c3ccccc3)CC2)c(F)c1)C1CC1`, the “hERG current change (%, negative = inhibition) at 10uM” value falls from 8.18% to 6.28%.

Going from `Cc1nc2nc(-c3cccs3)cn2nc1C` to `Cc1nnc(SCC(=O)Nc2sccc2C#N)n1Cc1ccccc1`, the “hERG current change (%, negative = inhibition) at 10uM” value falls from 6.22% to -31%.

Compared with `CC(C)(C)N1CC2(c3ccccc3)CN(C(C)(C)C)CC(c3ccccc3)(C1)C2=O`, `Nc1cc(-c2ccccc2)nn1Cc1ccccc1` is lower in “hERG current change (%, negative = inhibition) at 10uM” value: -16.3% for the first, -25.8% for the second.

First: O=C(CN1C(=O)c2ccccc2C1=O)NCC1COc2ccccc2O1 (stereo not drawn)
Second: CCOC(=O)Cc1csc(NC(=O)CN2C(=O)c3ccccc3C2=O)n1
The “hERG current change (%, negative = inhibition) at 10uM” value of the first is lower: -5.03% for the first, 9.83% for the second.

Going from `CCOCCCNC(=O)C(NC(=O)c1ccccc1O)c1ccc(C)cc1` (stereo not drawn) to `O=C(NNC(=S)NC(=O)c1ccccc1[N+](=O)[O-])c1ccccc1O`, the “hERG current change (%, negative = inhibition) at 10uM” value falls from 13% to 8.13%.

First: CC(C)N(Cc1ccccc1)C(=O)CCS(=O)(=O)c1ccc2c(c1)oc(=O)n2C
Second: CC(=O)c1cccc(NC(=O)C2CC(=O)N(CCc3ccccc3)C2)c1 (stereo not drawn)
The “hERG current change (%, negative = inhibition) at 10uM” value of the first is higher: 4.61% for the first, -2.22% for the second.

First: COc1ccccc1N1N=C(c2ccc([N+](=O)[O-])cc2)CC1c1ccccc1 (stereo not drawn)
Second: CC(=O)Nc1ccc(-c2cc(-c3ccccc3)nc(-c3ccccc3)n2)cc1
The “hERG current change (%, negative = inhibition) at 10uM” value of the first is higher: 14.7% for the first, 6.33% for the second.

Compared with `Cc1ccc2oc(=O)cc(/C=C/c3ccccc3)c2c1`, `Cc1nc2oc3ccccc3c(=O)c2cc1C(=O)O` is higher in “hERG current change (%, negative = inhibition) at 10uM” value: -16.7% for the first, 22.6% for the second.

Compared with `N#CC1(NC(=O)COC(=O)CCN=C2NS(=O)(=O)c3ccccc32)CCCCC1`, `CN(C)S(=O)(=O)c1cccc(NC(=O)CCCC2CCCCC2)c1` is lower in “hERG current change (%, negative = inhibition) at 10uM” value: 29.3% for the first, 6.35% for the second.

Going from `CCNC(=O)Nc1nc2ccccc2s1` to `CCOC(=O)C1=C(N)N(c2ccccc2)C(=O)C1`, the “hERG current change (%, negative = inhibition) at 10uM” value falls from 7.23% to -2.06%.

First: Nc1nonc1C(=O)N/N=C/c1ccc([N+](=O)[O-])o1
Second: CCOC(=O)c1noc(C)c1C(=O)Nc1nccs1
The “hERG current change (%, negative = inhibition) at 10uM” value of the first is lower: -21.4% for the first, 14.1% for the second.

Compared with `Cc1ccc(S(=O)(=O)N(Cc2nccn2C)C(C)C)cc1.Cl`, `CNC(=O)OC(C)CNS(=O)(=O)c1ccc(C)cc1` (stereo not drawn) is lower in “hERG current change (%, negative = inhibition) at 10uM” value: -3.22% for the first, -3.92% for the second.

First: Cc1cc(C(=O)N2CC(C)CC(C)C2)c(C)o1 (stereo not drawn)
Second: Cc1cc(=O)[nH]c(SCC(=O)N2C(C)CCCC2C)n1 (stereo not drawn)
The “hERG current change (%, negative = inhibition) at 10uM” value of the first is lower: -1.07% for the first, 3.9% for the second.

Going from `COc1cccc(CN2CCC(Oc3ccc(C(=O)NCc4ccccn4)cc3)CC2)c1` to `CSc1ccc(CN2CCC(Oc3ccc(C(=O)N4CCCC4)cc3)CC2)cc1`, the “hERG current change (%, negative = inhibition) at 10uM” value falls from -19.6% to -71.1%.

Compared with `Cc1nn2c(NCc3cccnc3)c3c(nc2c1-c1ccccc1)CCC3`, `COn1c(-c2ccccc2)nc2c1CCc1nonc1-2` is higher in “hERG current change (%, negative = inhibition) at 10uM” value: -34.2% for the first, 4.76% for the second.

First: COc1ccccc1C(=O)N/C(=C\c1cn(C)c2ccccc12)C(=O)N1CCCC1
Second: COc1cccc(C(c2c(NC(=O)c3ccccc3)sc(C)c2C)N2CCN(C)CC2)c1 (stereo not drawn)
The “hERG current change (%, negative = inhibition) at 10uM” value of the first is higher: -10.9% for the first, -17.6% for the second.

Going from `Cc1ccc(CNC(=O)/C(C#N)=C\c2ccc(N(C)C)cc2)cc1` to `Cc1cccc(N/C=C/C(=O)c2ccc(Cl)cc2)c1`, the “hERG current change (%, negative = inhibition) at 10uM” value rises from 4.62% to 21.2%.

First: CC(OC(=O)CCC(=O)c1cccs1)C(=O)Nc1ccc(Cl)cn1 (stereo not drawn)
Second: CC(C)C(=O)Nc1ccc(NC(=O)c2cccnc2)cn1
The “hERG current change (%, negative = inhibition) at 10uM” value of the first is lower: -9.49% for the first, 0.629% for the second.

Going from `Cc1noc2ncnc(Oc3ccc(F)cc3)c12` to `COC(=O)c1ccc(CSc2ccc3nnc(-c4ccc(F)cc4)n3n2)o1`, the “hERG current change (%, negative = inhibition) at 10uM” value falls from -14.3% to -29.1%.

Going from `CC1=C(C/C=C(\C)CCCC(C)CCCC(C)CCCC(C)C)C(=O)c2ccccc2C1=O` (stereo not drawn) to `CC(C)CN(CC(C)C)C(=O)Nc1cccc([N+](=O)[O-])c1`, the “hERG current change (%, negative = inhibition) at 10uM” value falls from 25.4% to 11.9%.

Going from `CCCCN(C(=O)CCC(=O)Nc1cc(C)on1)C(C(=O)NC1CCCC1)c1ccc(OCC)cc1` (stereo not drawn) to `Cc1ccc(NC(=O)CN(C)CC(=O)Nc2sc3c(c2C(N)=O)CCC3)cc1`, the “hERG current change (%, negative = inhibition) at 10uM” value falls from -38.3% to -55.5%.

Compared with `COc1ccc(-n2nc(C(=O)NCC(=O)N3CCC4(CC3)OCCO4)c3ccccc3c2=O)cc1`, `O=C(Nc1cccnc1)c1c(O)c2cccc3c2n(c1=O)CC3` is lower in “hERG current change (%, negative = inhibition) at 10uM” value: 13.5% for the first, 10.5% for the second.

Compared with `CC1CCC(NC(=O)CCS(=O)(=O)c2ccc3c(c2)NC(=O)CO3)CC1` (stereo not drawn), `Cc1sc(NC(=O)c2ccco2)c(C(c2ccccc2)N2CCC(C)CC2)c1C` (stereo not drawn) is higher in “hERG current change (%, negative = inhibition) at 10uM” value: 5.55% for the first, 14.6% for the second.

Going from `Nc1cc(Nc2ccccc2)ccn1.O=P(O)(O)O` to `O=C(O)c1cccc(N2C(=O)Nc3ccccc3N2O)c1`, the “hERG current change (%, negative = inhibition) at 10uM” value rises from -7.8% to 10.2%.

Going from `C=CC[C@]12CCc3sccc3C1N(c1ccc(C(=O)OCC)cc1)C2=O` (stereo partly drawn) to `CCCCn1c(NC(=O)c2ccc(Br)o2)c(C(=O)OCC)c2nc3ccccc3nc21`, the “hERG current change (%, negative = inhibition) at 10uM” value falls from 6.35% to -53.8%.

First: Cc1cc(C)cc(NC(=O)Cn2cnc3c(nnn3Cc3ccc(F)cc3)c2=O)c1
Second: COc1cccc(CCNC(=O)CCc2nnc(-c3ccc4c(c3)OCO4)o2)c1
The “hERG current change (%, negative = inhibition) at 10uM” value of the first is higher: 18.3% for the first, -7.05% for the second.

Compared with `CC(=O)OCC(=O)C1=CCC2C3CCC4=CC(=O)C=CC4(C)C3(F)C(OC(C)=O)CC12C` (stereo not drawn), `O=C(C1CCCN(Cc2cccnc2)C1)N1CCCCC1.O=C(O)C(=O)O` (stereo not drawn) is higher in “hERG current change (%, negative = inhibition) at 10uM” value: 4.04% for the first, 7.77% for the second.

Compared with `O=C(O)CCCc1c(-[n+]2ccccc2)[nH]c2ccccc12.[Cl-]`, `Cc1ccccc1N=C1N=C(N)c2ccccc21` is lower in “hERG current change (%, negative = inhibition) at 10uM” value: 32.2% for the first, -2.13% for the second.

First: CCCC[C@@H]1CNCCN1CCc1cccc(F)c1
Second: Cc1cccc(C(=O)NNC(=O)c2cccc([N+](=O)[O-])c2)c1
The “hERG current change (%, negative = inhibition) at 10uM” value of the first is lower: -49.6% for the first, 5.61% for the second.

First: O=C(NC12CC3CC(CC(C3)C1)C2)N1CCC(O)(c2ccc3c(c2)OCO3)CC1
Second: COc1ccc(-c2n[nH]c(=S)n2-c2ccc3c(c2)OCCO3)cc1OC
The “hERG current change (%, negative = inhibition) at 10uM” value of the first is lower: -1.21% for the first, 15.2% for the second.
